Molecular target: protein kinase C-beta I/II (control protein, rat cerebellar supernatant) (rat, UniProt P68403)
Experiment: co-immunoprecipitation with anti-CAPON antibody from rat cerebellar supernatant, Western blot for PKC-beta I/II

B1: rat brain CAPON (endogenous, cerebellar supernatant) (other)
chain: MPSKTKYNLVDDGHDLRIPLHNEDAFQHGISFEAKYVGSLDVPRPNSRVEIVAAMRRIRYEFKAKNIKKKKVSIMVSVDGVKVILKKKKKKKEWTWDESKMLVMQDPIYRIFYVSHDSQDLKIFSYIARDGASNIFRCNVFKSKKKSQAMRIVRTVGQAFEVCHKLSLQHTQQNADGQEDGESERNSDGSGDPGRQLTGAERVSTATAEETDIDAVEVPLPGNDILEFSRGVTDLDAIGKDGGSHIDTTVSPHPQEPMLAASPRMLLPSSSSSKPPGLGTGTPLSTHHQMQLLQQLLQQQQQQTQVAVAQVHLLKDQLAAEAAARLEAQARVHQLLLQNKDMLQHISLLVKQVQELELKLSGQSTMGSQDSLLEITFRSGALPVLCESTTPKPEDLHSPLLGAGLADFAHPVGSPLGRRDCLVKLECFRFLPAEDNQPMAQGEPLLGGLELIKFRESGIASEYESNTDESEERDSWSQEELPRLLNVLQRQELGDSLDDEIAV
binding result: no binding

Reference: patent publication US6103872, “CAPON: a protein associated with neuronal nitric oxide synthase” (The Johns Hopkins University, dated 2000)
